Some of the results follow. The data describe in vitro nicking of single-stranded DNA by Rep domains at 3 µM enzyme and 37 °C for 1 h; the strands have 90 letters, of which the middle is given. The score is log2 (uncut reads / reads without enzyme); uncut sequences lie near 0, cut ones below; no hit call is given. Because reads are shares of a total, they shift together, so uncut sequences can rise above 0 when many others are cut.
What was measured:
Experiment in all cases: uncleaved DNA left, log2 of reads against the no-enzyme library (log2 ratio); higher = less cleavage (more negative = more Rep cleavage of the k-mer); sequences stand for … in CTCGTCCG…ACCGGAGA
[1] = test system: T1, Rep nickase domain of Muscovy duck circovirus
T1 sequence (residues 1-111 of Rep, tag left off): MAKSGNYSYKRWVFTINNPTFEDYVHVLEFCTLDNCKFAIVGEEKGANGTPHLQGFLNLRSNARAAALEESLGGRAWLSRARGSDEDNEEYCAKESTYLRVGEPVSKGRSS
Experimental: (§1)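 A pool of 90-nt single-stranded DNAs with seven random bases just before the constant AC of the nick site (name = the seven bases) was cut by 3 µM recombinant His6-SUMO-tagged Rep nickase domain (300 nM DNA, 50 mM HEPES pH 8.0, 50 mM NaCl, 1 mM MnCl2, 1 h, 37 °C, three replicates). Uncut DNA was amplified and sequenced.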

[2] = test system: T2, Rep nickase domain of banana bunchy top virus
T2 sequence (residues 1-94 of Rep, tag left off): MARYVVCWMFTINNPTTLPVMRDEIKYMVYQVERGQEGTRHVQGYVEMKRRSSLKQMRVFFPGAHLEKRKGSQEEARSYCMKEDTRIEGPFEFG
Experimental: as §1

[3] = test system: T3, Rep nickase domain of cabbage leaf curl virus
T3 sequence (residues 1-116 of Rep, tag left off): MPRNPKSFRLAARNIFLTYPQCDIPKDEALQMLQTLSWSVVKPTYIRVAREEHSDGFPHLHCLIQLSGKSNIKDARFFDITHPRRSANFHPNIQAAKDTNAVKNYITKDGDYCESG
Experimental: as §1

[4] = test system: T4, Rep nickase domain of chickpea chlorotic dwarf virus
T4 sequence (residues 1-124 of Rep, tag left off): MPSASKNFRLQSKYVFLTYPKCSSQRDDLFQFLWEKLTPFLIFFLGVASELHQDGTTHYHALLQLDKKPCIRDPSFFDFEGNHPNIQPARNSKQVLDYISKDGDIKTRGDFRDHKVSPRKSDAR
Experimental: as §1

[5] = test system: T5, Rep nickase domain of faba bean necrotic yellows virus
T5 sequence (residues 1-98 of Rep, tag left off): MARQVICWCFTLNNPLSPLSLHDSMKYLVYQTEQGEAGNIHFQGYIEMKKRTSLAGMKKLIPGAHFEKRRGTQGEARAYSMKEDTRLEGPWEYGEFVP
Experimental: as §1

[6] = test system: T6, Rep nickase domain of maize striate mosaic virus
T6 sequence (residues 1-117 of Rep, tag left off): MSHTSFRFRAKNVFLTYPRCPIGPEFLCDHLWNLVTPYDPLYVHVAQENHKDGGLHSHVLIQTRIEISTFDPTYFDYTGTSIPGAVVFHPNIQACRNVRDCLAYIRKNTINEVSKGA
Experimental: as §1

[7] = test system: T7, Rep nickase domain of porcine circovirus 2
T7 sequence (residues 2-116 of Rep, tag left off): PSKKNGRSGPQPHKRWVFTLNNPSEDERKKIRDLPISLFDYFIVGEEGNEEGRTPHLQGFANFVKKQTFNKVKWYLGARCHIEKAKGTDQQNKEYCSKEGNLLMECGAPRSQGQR
Experimental: as §1

[8] = test system: T8, Rep nickase domain of tomato golden mosaic virus
T8 sequence (residues 1-124 of Rep, tag left off): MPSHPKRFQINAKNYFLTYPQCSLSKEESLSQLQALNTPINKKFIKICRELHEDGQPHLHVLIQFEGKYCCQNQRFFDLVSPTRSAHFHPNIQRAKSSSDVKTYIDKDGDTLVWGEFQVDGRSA
Experimental: as §1

[9] = test system: T9, Rep nickase domain of tomato yellow leaf curl virus
T9 sequence (residues 1-136 of Rep, tag left off): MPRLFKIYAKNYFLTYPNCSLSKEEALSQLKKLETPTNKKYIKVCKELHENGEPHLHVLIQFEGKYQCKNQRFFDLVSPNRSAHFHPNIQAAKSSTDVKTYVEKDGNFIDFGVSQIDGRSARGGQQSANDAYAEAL
Experimental: as §1

[10] = test system: T10, Rep nickase domain of wheat dwarf virus
T10 sequence (residues 1-137 of Rep, tag left off): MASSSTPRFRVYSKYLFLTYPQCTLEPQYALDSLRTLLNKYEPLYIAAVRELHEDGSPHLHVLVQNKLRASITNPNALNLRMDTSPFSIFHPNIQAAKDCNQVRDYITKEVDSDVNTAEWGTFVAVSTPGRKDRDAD
Experimental: as §1

Sequence	uncleaved DNA left (log2) [1]	uncleaved DNA left (log2) [2]	uncleaved DNA left (log2) [3]	uncleaved DNA left (log2) [4]	uncleaved DNA left (log2) [5]	uncleaved DNA left (log2) [6]	uncleaved DNA left (log2) [7]	uncleaved DNA left (log2) [8]	uncleaved DNA left (log2) [9]	uncleaved DNA left (log2) [10]
GTTCTAG	0.108	0.0563	0.0941	0.245	-0.0331	-0.148	0.129	0.15	0.0606	0.0313
TCCCTCG	-0.0258	-0.0927	-0.785	-0.534	0.00747	-1.27	-0.0971	-0.253	-0.0097	-0.222
CGCCGCA	0.0259	-0.0117	-0.0237	0.0228	-0.0669	-0.0519	0.0193	0.0362	0.052	0.0768
TAAGCAG	-0.0589	-0.134	-0.403	-0.51	-0.0969	-0.816	0.0414	-0.134	-0.0806	-0.0947
TTGTGCC	0.0219	-0.0377	-0.42	-0.544	-0.0303	-1.2	-0.103	-0.092	0.0531	-0.112
ACCTGGA	0.0415	-0.0632	-0.107	0.05	0.0725	-0.636	0.0549	0.0528	-0.0516	-0.122
CATCTGG	-0.0631	-0.054	-0.184	-0.142	-0.00619	-0.825	0.0418	-0.0221	-0.105	-0.082
AGGGAAG	0.143	0.0723	-0.16	0.0672	0.117	-0.687	0.12	0.104	-0.0205	0.0638
GGGAGTG	0.00762	-0.025	0.46	1.56	-0.029	1.86	0.103	-0.0753	-0.013	0.0394
TTGTGCG	-0.0363	-0.0379	-0.396	0.984	-0.0231	0.353	-0.0461	-0.142	-0.373	-0.112
AGCACCG	-0.0143	-0.0162	-0.402	-0.43	-0.0289	-0.675	0.0406	-0.0441	-0.0662	-0.08
GCCAACC	-0.182	-0.035	0.0432	-0.658	-0.182	-0.0389	-0.409	-0.119	-0.148	-0.0253
AACGCGT	0.108	-0.0647	-0.956	-0.705	0.064	-0.923	0.0728	-0.0655	0.00722	-0.0798
GCGGCGC	0.0411	-0.0825	-0.328	0.0131	0.042	-0.18	0.0392	-0.183	-0.0236	-0.132
ACGCTGG	0.132	0.0522	-0.299	-0.246	0.189	-0.795	0.245	0.169	0.0615	0.0286
CAACCTC	-0.114	0.0169	-0.0689	-0.439	-0.0882	0.609	-0.275	-0.0246	-0.135	-0.00581
CCGCTTT	-0.158	-0.0331	-0.0461	-1.42	0.0791	-0.452	-0.395	-0.179	-0.122	-0.218
AAGGAGC	0.0297	0.0952	0.181	1.02	-0.0255	0.656	0.229	0.0809	-0.0866	-0.0527
AGTACGT	-0.012	-0.0499	0.112	0.0425	-0.0428	-0.0692	-3.25	-0.063	0.00182	-0.0102
GGCATTT	-0.0716	-0.0342	0.683	1.56	-0.101	2.03	0.0111	-0.0918	-0.0663	0.126
CCTGGTT	0.0099	-0.102	0.11	-0.664	-0.0376	0.447	-0.00525	-0.0474	-0.135	-0.0742
CATTTAG	0.0651	0.00591	-0.682	-0.015	0.175	-0.764	0.206	0.127	0.19	0.0197
TTATAAC	0.0357	-0.018	-0.326	-1.73	0.0144	-0.343	0.0553	0.0527	-0.055	-0.0399
TTTACGG	-0.045	0.0604	0.529	1.59	-0.0135	2.14	0.11	0.122	-0.113	0.00353
CGAGACC	-0.0403	-0.164	0.427	0.924	-0.0226	0.448	-0.139	-0.0532	-0.146	-0.124
GACGGAG	-0.0207	-0.0373	-0.125	0.0805	-0.116	-0.564	0.0871	-0.0456	-0.0665	-0.0318
GGGGAAG	0.266	0.0346	0.936	1.97	0.0359	2.1	0.287	0.179	0.0883	0.191
ATCAACT	0.0901	0.0247	-0.242	-2.56	0.11	-0.828	-0.175	0.0351	0.047	0.107
AGTCCTT	0.0535	0.00224	0.634	0.806	-0.104	1.72	-3.19	-0.12	0.066	0.181
ACTACAT	0.0535	0.12	0.0756	-0.352	-0.0461	-0.113	-0.997	-0.0394	0.00241	0.138

Source: the supplement of paper PMC7826260
